Assay results as given in the supplement of paper PMC8728848.
This is one part of the list.

Key:
Experiment in all cases: glycan array binding signal (z-score within array); higher = stronger binding
Settings in all cases: glycan notation: IUPAC condensed, linker removed
Neu5Ac(a2-8)Neu5Ac = target: Neu5Ac(a2-8)Neu5Ac
Summary of the method: (§1)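 Glycan array data were curated from 3228 arrays in the Consortium for Functional Glycomics database and kept only where the protein sequence was available. Glycan names were converted to IUPAC-condensed notation, and columns mapping to the same glycan were averaged. The binding signal is a within-array Z-score, averaged across arrays of the same protein sequence at different concentrations or buffers and across linkers. Negative Z-scores can be read as non-binding.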

[1] = target: Neu5Ac(a2-8)Neu5Ac(a2-3)Gal(b1-3)GalNAc(b1-4)[Neu5Ac(a2-3)]Gal(b1-4)Glc
Summary of the method: as §1

[2] = target: Neu5Ac(a2-8)Neu5Ac(a2-3)Gal(b1-3)GalNAc(b1-4)[Neu5Ac(a2-8)Neu5Ac(a2-3)]Gal(b1-4)Glc
Summary of the method: as §1

[3] = target: Neu5Ac(a2-8)Neu5Ac(a2-3)Gal(b1-4)Glc
Summary of the method: as §1

[4] = target: Neu5Ac(a2-8)Neu5Ac(a2-3)Gal(b1-4)GlcNAc
Summary of the method: as §1

[5] = target: Neu5Ac(a2-8)Neu5Ac(a2-3)[Gal(b1-3)GalNAc(b1-4)]Gal(b1-4)Glc
Summary of the method: as §1

[6] = target: Neu5Ac(a2-8)Neu5Ac(a2-3)[GalNAc(b1-4)]Gal(b1-4)Glc
Summary of the method: as §1

[7] = target: Neu5Ac(a2-8)Neu5Ac(a2-8)Neu5Ac
Summary of the method: as §1

[8] = target: Neu5Ac(a2-8)Neu5Ac(a2-8)Neu5Ac(a2-3)Gal(b1-4)Glc
Summary of the method: as §1

[9] = target: Neu5Ac(a2-8)Neu5Ac(a2-8)Neu5Ac(a2-3)[Gal(b1-3)GalNAc(b1-4)]Gal(b1-4)Glc
Summary of the method: as §1

[10] = target: Neu5Ac(a2-8)Neu5Ac(a2-8)Neu5Ac(a2-3)[GalNAc(b1-4)]Gal(b1-4)Glc
Summary of the method: as §1

[11] = target: Neu5Ac(a2-8)Neu5Ac(a2-8)Neu5Ac(a2-8)Neu5Ac(a2-3)[GalNAc(b1-4)]Gal(b1-4)Glc
Summary of the method: as §1

[12] = target: Neu5Ac(a2-8)Neu5Gc(a2-3)Gal(b1-4)GlcNAc
Summary of the method: as §1

[13] = target: Neu5Ac(b2-6)Gal(b1-4)GlcNAc
Summary of the method: as §1

Neu5Ac(b2-6)GalNAc = target: Neu5Ac(b2-6)GalNAc
Summary of the method: as §1

[14] = target: Neu5Ac9Ac(a2-3)Gal(b1-3)GlcNAc
Summary of the method: as §1

[15] = target: Neu5Ac9Ac(a2-3)Gal(b1-4)GlcNAc
Summary of the method: as §1

[16] = target: Neu5Ac9Ac(a2-6)Gal(b1-4)GlcNAc
Summary of the method: as §1

[17] = target: Neu5Gc(a2-3)Gal(b1-3)GlcNAc
Summary of the method: as §1

[18] = target: Neu5Gc(a2-3)Gal(b1-3)[Fuc(a1-4)]GlcNAc
Summary of the method: as §1

Neu5Gc(a2-3)Gal(b1-4)Glc = target: Neu5Gc(a2-3)Gal(b1-4)Glc
Summary of the method: as §1

[19] = target: Neu5Gc(a2-3)Gal(b1-4)GlcNAc
Summary of the method: as §1

[20] = target: Neu5Gc(a2-3)Gal(b1-4)GlcNAc(b1-3)Gal(b1-4)GlcNAc(b1-2)Man(a1-3)[Neu5Gc(a2-3)Gal(b1-4)GlcNAc(b1-3)Gal(b1-4)GlcNAc(b1-2)Man(a1-6)]Man(b1-4)GlcNAc(b1-4)GlcNAc
Summary of the method: as §1

[21] = target: Neu5Gc(a2-3)Gal(b1-4)[Fuc(a1-3)]GlcNAc
Summary of the method: as §1

[22] = target: Neu5Gc(a2-6)Gal(b1-4)GlcNAc
Summary of the method: as §1

Neu5Gc(a2-6)GalNAc = target: Neu5Gc(a2-6)GalNAc
Summary of the method: as §1

[23] = target: Neu5Gc(a2-8)Neu5Ac(a2-3)Gal(b1-4)GlcNAc
Summary of the method: as §1

[24] = target: Neu5Gc(a2-8)Neu5Gc(a2-3)Gal(b1-4)GlcNAc
Summary of the method: as §1

[25] = target: Neu5Gc(a2-8)Neu5Gc(a2-3)Gal(b1-4)GlcNAc(b1-3)Gal(b1-4)GlcNAc
Summary of the method: as §1

[26] = target: Neu5Gc(a2-8)Neu5Gc(a2-6)Gal(b1-4)GlcNAc
Summary of the method: as §1

[27] = target: Neu5Gc(b2-6)Gal(b1-4)GlcNAc
Summary of the method: as §1

B1: FliD (Clostridium difficile) (protein)
chain: MSSISPVRVTGLSGNFDMEGIIEASMIRDKEKVNKAKQDQQIVKWKQEIYRDIIKESKNLYDKYLNGDSPNSITNKKAYSATRITSSDESIIVAKGSAGAEKINYQFAVSQMAEPAKVTIKLNSSDPIVQQFPPNASGASSLNIGGVNIPISEQDTTSTIVSKINSLCADNDIRASYSEMTGELIISRKQTGSSSDIDLKVIGNDSLAGQIASDNGITFTTDASGTKSAVVYGKNLEADVTDDQGRVTHISKEQNSFKIDNIDYNVNSKGSAKLVSVTDTEEATKNMKAFVDDYNALMDKVYGLVTTKKSKDYPPLTDEQKDDMTTEEIEKWEKKAKEGILRNDDELRAFVEDIQSMFFGDADTIIALRKLGISEHENYNKKGQISFNADTFSKALIDDSDKVYKALAGYSSNYDDKGMFEKLKKIVFEYSGSSASKLTKKAGMENSSSASQNVYSKQIAEQERNISRLVEKMNDKEKRLYAKYSALESLLNKYSSQMNYFSQAQGN
Neu5Ac(a2-8)Neu5Ac
  glycan array binding signal (z-score): -0.232
[1]
  glycan array binding signal (z-score): -0.267
[2]
  glycan array binding signal (z-score): -0.136
[3]
  glycan array binding signal (z-score): -0.235
[4]
  glycan array binding signal (z-score): -0.213
[5]
  glycan array binding signal (z-score): -0.122
[6]
  glycan array binding signal (z-score): 0.09
[7]
  glycan array binding signal (z-score): -0.239
[8]
  glycan array binding signal (z-score): -0.235
[9]
  glycan array binding signal (z-score): -0.136
[10]
  glycan array binding signal (z-score): -0.194
[11]
  glycan array binding signal (z-score): -0.21
[12]
  glycan array binding signal (z-score): -0.247
[13]
  glycan array binding signal (z-score): -0.242
Neu5Ac(b2-6)GalNAc
  glycan array binding signal (z-score): -0.259
[14]
  glycan array binding signal (z-score): 0.957
[15]
  glycan array binding signal (z-score): -0.108
[16]
  glycan array binding signal (z-score): -0.19
[17]
  glycan array binding signal (z-score): -0.166
[18]
  glycan array binding signal (z-score): -0.128
Neu5Gc(a2-3)Gal(b1-4)Glc
  glycan array binding signal (z-score): -0.194
[19]
  glycan array binding signal (z-score): -0.19
[20]
  glycan array binding signal (z-score): -0.067
[21]
  glycan array binding signal (z-score): -0.112
[22]
  glycan array binding signal (z-score): -0.077
Neu5Gc(a2-6)GalNAc
  glycan array binding signal (z-score): -0.104
[23]
  glycan array binding signal (z-score): -0.273
[24]
  glycan array binding signal (z-score): -0.191
[25]
  glycan array binding signal (z-score): 0.093
[26]
  glycan array binding signal (z-score): -0.194
[27]
  glycan array binding signal (z-score): -0.217
